Measurements from PubChem BioAssay AID485344 (National Center for Advancing Translational Sciences (NCATS), 2010).
Screen size: about 340,000 compounds; about 6,900 (2%) were called active. Rule as the data show it: active = inhibition above about 30%; inactive = below that, where a call was filed. Only a part is listed here, and it is no random draw. The source gives no active or inactive call for entries shown without one.

molecular target: D(2) dopamine receptor (Homo sapiens) (UniProt P14416); assay: HTS Assay for Allosteric Antagonists of the Human D2 Dopamine Receptor: Primary Screen for Antagonists; conditions: HEK293 TREx D2 cells, calcium flux, dopamine EC80; at 10 µM; stronger effect = higher value; also: 0% is about no effect
Procedure, shortened: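 HEK293 T-REx D2 cells, tet-induced, calcium dye no-wash. Cpd pintool add, 180 s kinetic, then EC80 DA, 180 s kinetic. Ca flux read.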

Sequence of UniProt P14416 (P14416 whole entry, looked up): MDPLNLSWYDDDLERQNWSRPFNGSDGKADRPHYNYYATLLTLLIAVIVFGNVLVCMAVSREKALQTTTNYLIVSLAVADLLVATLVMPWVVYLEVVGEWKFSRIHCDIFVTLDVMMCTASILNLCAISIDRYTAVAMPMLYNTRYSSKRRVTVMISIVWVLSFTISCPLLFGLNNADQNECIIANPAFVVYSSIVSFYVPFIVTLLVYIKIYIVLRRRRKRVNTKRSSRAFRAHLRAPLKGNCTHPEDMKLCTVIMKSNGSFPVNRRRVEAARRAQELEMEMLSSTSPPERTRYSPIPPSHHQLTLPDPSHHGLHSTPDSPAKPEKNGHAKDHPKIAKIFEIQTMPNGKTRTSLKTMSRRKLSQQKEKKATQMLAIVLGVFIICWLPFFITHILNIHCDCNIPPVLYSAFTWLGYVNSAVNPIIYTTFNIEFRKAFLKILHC

Row | SMILES | inhibition
1 | Cc1ccc(-n2nnnc2CNC(=O)c2ccccc2F)cc1C | 11.7%
2 | COc1ccc(-c2cc(C(F)(F)F)n3nc(C(=O)Nc4cccc(C(F)(F)F)c4)c(Br)c3n2)cc1 | -0.331%
3 | COC(=O)c1cnc(N2CCN(c3ccccc3OC)CC2)c2ccccc12 | 3.47%
4 | CCOC(=O)c1ccc(NC(=O)CCn2cnnn2)cc1 | -7.95%
5 | CCOC(=O)c1sc2ccccc2c1S(=O)(=O)NCc1ccc(F)cc1 | -6.62%
6 | COc1cc(/C=C2\SC(=Nc3ccc(Cl)c(C(=O)O)c3)NC2=O)c(Br)c(Br)c1O | active: 37%
7 | CC1=C(c2ccc(Cl)cc2)S(=O)(=O)N=C1N1CCN(c2cccc(C(F)(F)F)c2)CC1 | 10.5%
8 | COc1cc(SC)ccc1C(=O)Nc1nc2ccccc2[nH]1 | active: 33.9%
9 | COc1ccccc1CNC(=O)CCC1N=C2c3ccccc3N=C(SCc3ccccc3Cl)N2C1=O (stereo not drawn) | -4.12%
10 | CCSc1nc(-c2ccc(Cl)cc2)nc2c1Cc1c(CO)cnc(C)c1O2 | 6.66%
11 | c1cnc(N2CCN(Cc3c[nH]c4ccccc34)CC2)nc1 | active: 83.4%
12 | Cc1ccc(CNC(=O)C2CCCN(c3nnc(-n4c(C)ccc4C)s3)C2)cc1 (stereo not drawn) | 2.88%
13 | COc1ccc(NC(=O)CSc2nc(O)c(C/C=C/c3ccccc3)c(=O)[nH]2)cc1 | -13.3%
14 | COc1ccc(CCNC(=O)CCCCCn2c(=O)[nH]c3cc(OC)c(OC)cc3c2=O)cc1OC | -18.1%
15 | CC(=O)Nc1nnc(SCc2cc(=O)c3cccc(C)c3[nH]2)s1 | 3.27%
16 | CCN(Cc1ccc2c(c1)OCCO2)C(=O)CN1C(=O)NC2(CCCCC2)C1=O | active: 40.7%
17 | CC1=C(C(=O)Nc2ccc(C)cc2C)C(c2cccn2C)n2ncnc2N1 (stereo not drawn) | -9.81%
18 | CCC(C)N1CC23C=CC(O2)C(C(=O)OC)C3C1=O (stereo not drawn) | active: 30.5%
19 | CC(C)C(=O)Nc1cccc(NC2=NS(=O)(=O)c3ccccc32)c1 | -12.1%
20 | Cc1ccc(C)c(N2CCN(c3nc4ccccc4c4nc(-c5cccnc5)nn34)CC2)c1 | 12%
21 | CCOC(=O)c1cccc(NC(c2nnc(-c3ccccc3)o2)c2ccccc2F)c1 (stereo not drawn) | 11.4%
22 | NC(=O)c1noc(C(=O)N(CC(=O)NC2CCCC2)Cc2ccc3c(c2)OCO3)c1N | active: 36.7%
23 | CCc1ccc(C2=CC(c3cccc(Br)c3)n3nnnc3N2)cc1 (stereo not drawn) | -7.03%
24 | Cc1c(NC2=C(Cl)C(=O)N(c3ccccc3)C2=O)c(=O)n(-c2ccccc2)n1C | active: 37.8%

Row | SMILES | inhibition
25 | C=Cc1ccc(Cn2c(=O)n(-c3ccc(C)cc3)c(=O)c3c2c2cc(OC)ccc2n3C)cc1 | -7.81%
26 | C=CCNC(=O)c1onc(CSc2ccccc2)c1C(=O)O | active: 31.8%
27 | O=C(NCc1ccccc1)C1CCN(C(=O)c2cnn(-c3ccccc3)c2-n2cccc2)CC1 | -14.3%
28 | COc1ccc2cc(C(=O)NCc3ccc4c(c3)CCN4C(=O)c3ccc(C)cc3)[nH]c2c1 | 14%
29 | CCc1ccc(-n2nc(C)c3c(C)cc(=O)n(CC(=O)NCc4ccc(C)cc4)c32)cc1 | -3.55%
30 | CCOc1ccc(NC(=O)Cn2c(=O)n(CC3CCCO3)c(=O)c3ccccc32)cc1 (stereo not drawn) | -5.54%
31 | CCc1cc2c(cc3c(=O)n(CC(=O)N4CCN(c5cc(Cl)ccc5C)CC4)nc(CC)n32)s1 | -7.76%
32 | O=C(NCc1cccnc1)C(=O)NCC(c1cccnc1)N1CCN(c2ccccc2)CC1 (stereo not drawn) | 5.78%
33 | CC(C)CCNc1nc2c(S(=O)(=O)c3ccc(Br)cc3)nnn2c2ccsc12 | 0.302%
34 | CCCCCCc1cc2cc(-c3nnc(-c4ccc(C)cc4)o3)c(=O)oc2cc1O | 14.9%
35 | COC(=O)c1cc2sccc2n1Cc1nc(-c2cccc(Br)c2)oc1C | 6.49%
36 | COc1ccccc1Nc1c2c(nc3ccc(NC(=O)c4cccc(OC)c4OC)cc13)CCCC2 | 7.93%
37 | COc1ccc(CCNC(=O)c2cnc3sc(N4CCC(C)CC4)nn3c2=O)cc1OC | 0.691%
38 | CC(=O)Nc1ccc(S(=O)(=O)NCc2ccc(C(=O)NCc3ccc(Cl)cc3)cc2)cc1 | -11.3%
39 | O=C(Nc1ccc(C(F)(F)F)cc1)C1CCCN(S(=O)(=O)c2cccc3cccnc23)C1 (stereo not drawn) | -3.32%
40 | CCC1CCCCN1C(=O)CSc1n[nH]c(-c2ccccc2Cl)n1 (stereo not drawn) | 6.3%
41 | Cn1c(C(=O)NCCN2CCc3ccccc3C2)cc2c(=O)[nH]c3ccccc3c21 | active: 32.3%
42 | COc1cccc(CNC(=O)c2ccc(-c3nc(CS(=O)(=O)c4ccccc4)c(C)o3)cc2)c1 | 4.2%
43 | COC(=O)c1ccc2c(=O)n(CCCCCC(=O)N3CCN(c4cc(Cl)ccc4C)CC3)c(=O)[nH]c2c1 | -13.4%
44 | CN(C)CCNC(=O)CN1C(=O)CCn2nc(-c3cn(C)c4ccccc34)cc21 | 7.02%
45 | Cc1cc(C)cc(-n2nnc(-c3nsc(NC(=O)c4ccccc4Cl)n3)c2C)c1 | -10.9%
46 | CCc1ccc(NC(=O)Cn2ncc3c(C)n(Cc4cccc(Cl)c4)c(C)c3c2=O)cc1 | 1.56%
47 | O=C(COC(=O)CC1SC(N2CCCC2)=NC1=O)Nc1ccc(Br)cc1 (stereo not drawn) | active: 30.7%
48 | COc1ccc(CCNC(=O)C2CCN(c3ncnc4c3nc3n4CCCCC3)CC2)c(OC)c1 | -7.98%
